# In all, about 310,000 compounds went through this assay and about 11,000 (3.5%) were called active. This list was built around the results that the source calls inconclusive (neither active nor inactive); the mix of calls is not that of the screen. Calls follow the shape of the dose curve; as a rule, active = well fitted inhibition curve with a large enough effect; inconclusive = small, poorly fitted or top-dose-only effect, or effect the other way; inactive = flat fitted curve, though single readings scatter. No potency is given beside an inconclusive call; the fits are too rough.
# Assay: VP16 counterscreen qHTS for inhibitors of ROR gamma transcriptional activity;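 also: Gal4-VP16 expression switched on by copper sulfate through the metallothionein promoter; nearly all actives have a fitted effect of over 50% in size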
# Conditions: Drosophila S2 Gal4-VP16 UAS-luciferase, luminescence, 20 h; series mostly up to 53.6 µM
# Potency is read from the fitted curve at half-maximal effect; tags tell the direction and shape of the fitted curve.
row,Structure (SMILES),Potency
1,Cc1ccc(NS(=O)(=O)c2cccc(C(=O)n3ncc(C#N)c3N)c2)c(C)c1,inactive
2,Cc1cc(C)cc(NC(N)=S)c1,"inconclusive [inhibitor, single point]"
3,CCc1c(C(=O)NNC(=S)NCC2CCCO2)csc1C (centres undefined),"inconclusive [inhibitor, single point]"
4,C=CCn1c(COc2cccc(C)c2C)nnc1SCC(=O)N1CCN(c2ccccc2)CC1,"inconclusive [inhibitor, single point]"
5,N/C(=N\OC(=O)c1ccc2ccccc2c1)c1ccccc1Cl,"inconclusive [inhibitor, single point]"
6,Cc1sccc1/C=N/NC(=O)c1cccc2ccccc12,"inconclusive [inhibitor, single point]"
7,Cc1ccc(S(=O)(=O)NNC(=S)NC(=O)c2ccc([N+](=O)[O-])cc2)cc1,"inconclusive [inhibitor, single point]"
8,N#C/C(=C\C=C\c1ccccc1[N+](=O)[O-])C(=O)NC1CCCCC1,inactive
9,O=C1CCCN1CCCNc1ncnc2c1cnn2-c1ccc(Cl)cc1,"inconclusive [activator, partial curve]"
10,Cc1cccc(C(=O)NNC(=O)c2ccccc2Br)c1,"inconclusive [activator, partial curve]"
11,Cc1ccc(SCCNS(=O)(=O)c2ccc(F)cc2)cc1,"inconclusive [inhibitor, single point]"
12,CCn1c(Sc2ccc([N+](=O)[O-])cn2)nnc1-c1ccco1,"inconclusive [inhibitor, partial curve]"
13,Cc1ccccc1S(=O)(=O)Nc1nc2ccccc2nc1N1CCc2ccccc2C1,"inconclusive [activator, single point]"
14,O=C(CN(c1cccc(C(F)(F)F)c1)S(=O)(=O)c1ccc(Cl)c([N+](=O)[O-])c1)NCc1ccc(F)cc1,"inconclusive [inhibitor, single point]"
15,Cc1cc(C)nc(NS(=O)(=O)c2ccc(NC(=O)CSc3nc4ccccc4[nH]3)cc2)n1,active: 3.98 µM
16,Nc1c(S(=O)(=O)c2cccs2)c2nc3ccccc3nc2n1/N=C/c1cccc(O)c1,"inconclusive [inhibitor, single point]"
17,Cc1cccc2cc3c(nc12)SC(=NCC1CCCO1)N(Cc1ccco1)C3 (centres undefined),active: 3.16 µM
18,Cc1cc(C)c2c(=O)n(CC(=O)N3CCC(Cc4ccccc4)CC3)sc2n1,active: 3.98 µM
19,CN1CCN(c2ncc3nc(-c4cccs4)c(=O)n(CCC#N)c3n2)CC1,active: 6.31 µM
20,COc1ccc(N2CCN(C(=O)CSc3nnnn3-c3ccc4c(c3)OCCO4)CC2)cc1,"inconclusive [inhibitor, single point]"
21,Cc1ccc(CSCc2nnc(SCC(=O)N3CCN(c4ccccc4)CC3)n2C)cc1,"inconclusive [inhibitor, single point]"
22,CC(=O)N(CN1C(=O)CCC1=O)c1cccc(Cl)c1,"inconclusive [activator, single point]"

row,Structure (SMILES),Potency
1,CCCS(=O)(=O)N1CCCC(C(=O)NCCc2ccccc2)C1 (centres undefined),inactive
2,Cc1cccc(NC(=S)N(CCCN2CCOCC2)C(C)c2cc3ccccc3o2)c1C (centres undefined),"inconclusive [inhibitor, single point]"
3,CC1(C)CC(=O)c2cnc(N3CCc4ccccc43)nc2C1,"inconclusive [inhibitor, full curve, poor fit]"
4,O=C(/C=C\c1ccccc1OC(=O)c1ccccc1F)c1cc2ccccc2o1,active: 0.316 µM
5,CCC/C=C(\CCC)C(NC(=O)c1ccc(C(F)(F)F)cc1)c1ccccc1 (centres undefined),"inconclusive [inhibitor, single point]"
6,COc1ccc(S(=O)(=O)NC2CCCCC2)cc1-n1cnnn1,inactive
7,NNC(=S)Nc1ccc(C(F)(F)F)cc1Cl,"inconclusive [inhibitor, partial curve]"
8,O=C(Nc1ccccc1Cl)C1CCN(Cc2cnn(-c3ccccc3)c2-n2cccc2)CC1,"inconclusive [inhibitor, single point]"
9,Nc1c(C(=O)NCc2ccc3c(c2)OCO3)nnn1CC(=O)Nc1ccc(Br)cc1,"inconclusive [inhibitor, single point]"
10,COc1ccc2c(c1)CC/C(=C/c1ccco1)C2=O,"inconclusive [inhibitor, partial curve]"
11,CC(=O)N1[C@H](Cc2ccccc2)C=C[C@]1(C)C(=O)NCCN1CCOCC1,"inconclusive [inhibitor, single point]"
12,COc1cccc(NC(=O)c2nc(S(C)(=O)=O)ncc2Cl)c1,active: 5.01 µM
13,COc1cccc(-c2noc(CCCC(=O)Nc3ccc(C(N)=O)cc3)n2)c1,"inconclusive [inhibitor, partial curve]"
14,O=C(CN1CCN(c2ccc(O)cc2)CC1)Nc1cc(S(=O)(=O)N2CCCC2)ccc1Cl,inactive
15,C/C(=N\NC(=O)c1ccccc1O)C1C(=O)c2ccccc2C1=O,active: 3.16 µM
16,CCN(CC)S(=O)(=O)c1cccc(C(=O)Oc2cccc(NC(=O)c3cccs3)c2)c1,"inconclusive [activator, single point]"
17,COc1ccc(NC(=O)Oc2cc(C)ccc2C(C)C)cc1,inactive
18,COc1ccc(-c2cc3ccccc3oc2=O)cc1NC(=S)NC(=O)c1ccc2c(c1)OCCO2,inactive
19,COc1cccc2cc(C(=O)Nc3ccc(F)cc3)c(=Nc3ccc(C(=O)O)cc3)oc12,"inconclusive [inhibitor, single point]"
20,COc1ccc(CNC(=O)CCCC(=O)Nc2cccc(Br)c2)cc1,inactive
21,O=C(NC1CCCC1)C(=O)c1c[nH]c2ccccc12,"inconclusive [activator, partial curve]"
22,O=C(Nc1ccc2c(c1)CCC2)c1cnc(Cl)c(Cl)c1,"inconclusive [activator, partial curve]"
